The supplement of paper PMC10126150
Sequences with one replicate were seen in a single cluster, so their values are uncertain.

Tested on: ATP
Experiment: switch fluorescence ratio, 500 uM ATP over buffer (Cy3 cluster intensity, sum of 5 cycles each) (fold (ratio)); higher = stronger signal-on switching upon ATP binding; sequences stand for … in TCGTCGGCAGCGTCAGATGTGTATAAGAGACAGTTTTTTTTTTTTTTTTTTTTTTTTT…TC
Settings: aptamer strand: ATP DNA aptamer (quencher-CACCTGGGGGAGTATTGCGGAGGAAGG + anchor), 100 nM annealed; ATP concentration: 500 uM; one replicate
Outline: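 Per cluster, summed Cy3 intensity from the target cycles was divided by that from the buffer cycles to give the fluorescence ratio, then averaged per switch-domain sequence. Clusters outside 100-1000 RFU were excluded. The Cy3-labelled switching-strand clusters, on a modified Illumina MiSeq flow-cell, were annealed to 100 nM quencher-labelled ATP aptamer and imaged in selection buffer, then after 15 min with 500 uM ATP at 22 °C, for five cycles with NaOH stripping and re-annealing between them.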
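Also: ATP exposure 15 min at 22 °C before imaging.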

In the case of AGGCGGCATA, the switch fluorescence ratio is reported as 0.997.
GGATCCGTTT gave a switch fluorescence ratio of 1.
CAACTTCAGA was tested, and the switch fluorescence ratio was 1.
For CAGCCATCTC, the switch fluorescence ratio was 1.18.
With ATAGTTCTGC the switch fluorescence ratio was 1.12.
Work on TTAGCTTTTA yielded a switch fluorescence ratio of 1.
Sequence TTGGAAACG has a switch fluorescence ratio of 1.02.
Work on TCTACAATTC yielded a switch fluorescence ratio of 1.18.
Sequence CGTCTGCGGG has a switch fluorescence ratio of 1.09.
GAGGGTTAAA was tested, and the switch fluorescence ratio was 1.04.
CAGTTAAATG was tested, and the switch fluorescence ratio was 0.954.
ACCTGCTTGG was tested, and the switch fluorescence ratio was 1.02.
Sequence CTGCAGCTG has a switch fluorescence ratio of 1.18.
CCGAAGGCAA gave a switch fluorescence ratio of 3.94.
GTTAGTTTCA showed a switch fluorescence ratio of 1.04.
Work on CCAAGGTCCC yielded a switch fluorescence ratio of 1.01.
With TCCCGCCAAG the switch fluorescence ratio was 1.55.
AATATGCACT gave a switch fluorescence ratio of 1.09.
Work on CATGAGGGTG yielded a switch fluorescence ratio of 1.11.
For GAGCTAGACT, the switch fluorescence ratio was 1.5.
In the case of CAATAGGCTT, the switch fluorescence ratio is reported as 1.02.
TCGAGTGTGT gave a switch fluorescence ratio of 1.02.
Work on ACACGCGTGT yielded a switch fluorescence ratio of 0.995.
CGCGGACATT gave a switch fluorescence ratio of 1.05.
Sequence GGTCGTTAAC has a switch fluorescence ratio of 0.987.
AATGCGACTG gave a switch fluorescence ratio of 0.999.
Work on TTAAGCAATA yielded a switch fluorescence ratio of 1.91.
GGAATATACA gave a switch fluorescence ratio of 1.03.
Sequence TTTACATCTT has a switch fluorescence ratio of 1.04.
GGTGGCGACG was tested, and the switch fluorescence ratio was 1.03.
In the case of GCATGCCGGG, the switch fluorescence ratio is reported as 0.963.
TCCTCGAGCA showed a switch fluorescence ratio of 4.31.
CACTCAGTAC was tested, and the switch fluorescence ratio was 1.38.
For GTGTGAAGT, the switch fluorescence ratio was 1.02.
GGCACAACAT was tested, and the switch fluorescence ratio was 1.01.
TCTGGCTCGA was tested, and the switch fluorescence ratio was 0.988.
With ATACTCTGGT the switch fluorescence ratio was 1.01.
TGAGCACTTT was tested, and the switch fluorescence ratio was 0.997.
For AGGGGGTGGA, the switch fluorescence ratio was 1.01.
Work on GGCCATTAAA yielded a switch fluorescence ratio of 0.981.
CTACTCATAT showed a switch fluorescence ratio of 1.06.
In the case of AATCCGGTT, the switch fluorescence ratio is reported as 1.02.
Work on CTTGGGTGCT yielded a switch fluorescence ratio of 1.
With AGATGGTCGC the switch fluorescence ratio was 1.03.
GGTACTATAC showed a switch fluorescence ratio of 1.41.
Work on CTCCAATTTC yielded a switch fluorescence ratio of 1.9.
For TTATGTGCCA, the switch fluorescence ratio was 0.988.
For CAAAGGACC, the switch fluorescence ratio was 0.985.
In the case of GCTACCGACC, the switch fluorescence ratio is reported as 2.11.
AAACCGGCCT was tested, and the switch fluorescence ratio was 1.67.
AGTCTCTTGA gave a switch fluorescence ratio of 1.03.
Work on GTCCGATTGA yielded a switch fluorescence ratio of 0.982.
CGTTATTAAC showed a switch fluorescence ratio of 1.01.
Work on CTTACGTAGT yielded a switch fluorescence ratio of 1.04.
TTAATCGTTC showed a switch fluorescence ratio of 1.05.
With TGGGAGTTGC the switch fluorescence ratio was 1.04.
With CAAAAATAAT the switch fluorescence ratio was 0.964.
With AGTAGTTGAG the switch fluorescence ratio was 0.982.
TAGATTACTA was tested, and the switch fluorescence ratio was 0.99.
In the case of CTCGCTTCCG, the switch fluorescence ratio is reported as 1.05.
With GCCCGTGGAC the switch fluorescence ratio was 1.25.
With TCAATGGCCT the switch fluorescence ratio was 1.05.
Work on CGACGTGCTA yielded a switch fluorescence ratio of 1.21.
With AAGGTAAGC the switch fluorescence ratio was 0.986.
With GAGGGAGTAA the switch fluorescence ratio was 1.11.
CATGGGGGGC was tested, and the switch fluorescence ratio was 0.996.
GTCCATTTAG was tested, and the switch fluorescence ratio was 0.998.
GGCCCGTAGC gave a switch fluorescence ratio of 1.13.
For TTTCTTATCC, the switch fluorescence ratio was 0.969.
With TACCCCCTTT the switch fluorescence ratio was 1.06.
GCCTGGGAAT gave a switch fluorescence ratio of 1.02.
CGTTTCCCCG showed a switch fluorescence ratio of 1.03.
For ATTAATGTT, the switch fluorescence ratio was 0.996.
GATAAAACAT was tested, and the switch fluorescence ratio was 0.995.
Work on AAATATTAGG yielded a switch fluorescence ratio of 1.04.
In the case of TCCTGTGGTT, the switch fluorescence ratio is reported as 1.17.
Work on TTTTCAAGCA yielded a switch fluorescence ratio of 1.07.
In the case of AGATAAGTGT, the switch fluorescence ratio is reported as 0.944.
With TAGCGTAATC the switch fluorescence ratio was 1.15.
GCTCTCCTAA gave a switch fluorescence ratio of 1.07.
For GCTGCGGTCT, the switch fluorescence ratio was 1.07.
With CCTTGGATGT the switch fluorescence ratio was 0.984.
AAGTTTAACT was tested, and the switch fluorescence ratio was 1.03.
In the case of AGGTGATCGC, the switch fluorescence ratio is reported as 0.963.
Work on GGCAGTAGCA yielded a switch fluorescence ratio of 0.988.
ATTAACTATT was tested, and the switch fluorescence ratio was 1.03.
Sequence GTTTAATAAC has a switch fluorescence ratio of 0.977.
Work on TCCCGAGTTG yielded a switch fluorescence ratio of 1.03.
Sequence GACAGCGCGC has a switch fluorescence ratio of 0.944.
Sequence AACGTGCGTA has a switch fluorescence ratio of 1.
With CTCCAGGCAG the switch fluorescence ratio was 2.65.
TTGGACATTA was tested, and the switch fluorescence ratio was 1.04.
In the case of CCATGTATA, the switch fluorescence ratio is reported as 0.977.
Work on TGGCCTGAGG yielded a switch fluorescence ratio of 0.988.
AGCCATTTAC showed a switch fluorescence ratio of 1.26.
In the case of TCGGTCCGA, the switch fluorescence ratio is reported as 1.02.
In the case of GATAACTTTG, the switch fluorescence ratio is reported as 1.
Work on CTGCGAATAT yielded a switch fluorescence ratio of 1.3.
TACACTTAAC gave a switch fluorescence ratio of 1.11.
In the case of GTTCTTATGT, the switch fluorescence ratio is reported as 1.01.
In the case of GGATCCACCG, the switch fluorescence ratio is reported as 1.07.
For CACATTAGTG, the switch fluorescence ratio was 0.989.
With TGATGTTGTT the switch fluorescence ratio was 0.981.
TTGTGACTCC was tested, and the switch fluorescence ratio was 1.09.
Sequence ACATACAGAC has a switch fluorescence ratio of 1.3.
In the case of GATGATAATG, the switch fluorescence ratio is reported as 0.975.
Work on TTCATCGTTG yielded a switch fluorescence ratio of 1.01.
For ATTAAGGCGT, the switch fluorescence ratio was 0.997.
In the case of CGAGACGTTT, the switch fluorescence ratio is reported as 0.991.
Work on TCACCCTTGC yielded a switch fluorescence ratio of 1.43.
With GCCCCGTATC the switch fluorescence ratio was 1.08.
GTTTTGATAG gave a switch fluorescence ratio of 0.973.
Sequence TTCCATCTAG has a switch fluorescence ratio of 0.976.
For CTAGGGCCGC, the switch fluorescence ratio was 1.
With AACTGCCGG the switch fluorescence ratio was 0.955.
Work on TTTCTCACAT yielded a switch fluorescence ratio of 1.05.
ACACGTTACT showed a switch fluorescence ratio of 1.6.
Sequence TAAGTCCGGT has a switch fluorescence ratio of 1.01.
CATGGATCG gave a switch fluorescence ratio of 0.959.
Sequence GATTGGACAT has a switch fluorescence ratio of 1.
ATTTCGCCGC showed a switch fluorescence ratio of 1.14.
For GTTACGGCCG, the switch fluorescence ratio was 1.07.
Work on GAGGATCACC yielded a switch fluorescence ratio of 0.979.
GTGCATTTTT gave a switch fluorescence ratio of 0.981.
Work on TTACGGTGCA yielded a switch fluorescence ratio of 1.01.
GTTTGGCATT gave a switch fluorescence ratio of 1.05.
Sequence CCTGCCTAGA has a switch fluorescence ratio of 1.11.
For AGTTGCATTG, the switch fluorescence ratio was 0.995.
Work on CATCTGTCAG yielded a switch fluorescence ratio of 1.15.
Sequence CTTAATGTAG has a switch fluorescence ratio of 0.973.
In the case of TAACCATCAT, the switch fluorescence ratio is reported as 1.06.
Sequence CGTCTGAAAA has a switch fluorescence ratio of 0.971.
Sequence AATATAT has a switch fluorescence ratio of 1.
For ACGTGAGGGG, the switch fluorescence ratio was 1.06.
In the case of CTACCTCGGC, the switch fluorescence ratio is reported as 1.32.
CGGGCTCAAT showed a switch fluorescence ratio of 1.03.
Work on ACACCTCTAA yielded a switch fluorescence ratio of 1.08.
GTATTAGGG showed a switch fluorescence ratio of 0.964.
Sequence AGATGTTGCA has a switch fluorescence ratio of 1.
Sequence GAAATTGAAA has a switch fluorescence ratio of 1.08.
For TGATAGTCGT, the switch fluorescence ratio was 0.975.
Sequence GGGGGCAAAG has a switch fluorescence ratio of 0.992.
Work on TTATGTGGA yielded a switch fluorescence ratio of 1.03.
Sequence CCGTGAAGGT has a switch fluorescence ratio of 1.05.
TTCCTAGAC gave a switch fluorescence ratio of 2.5.
With CGAACCCGTG the switch fluorescence ratio was 1.13.
AATTCGCTCC showed a switch fluorescence ratio of 1.15.
Work on TAACTGATTA yielded a switch fluorescence ratio of 1.04.
ATGGTTGTTA was tested, and the switch fluorescence ratio was 1.07.
AGATAACCAG was tested, and the switch fluorescence ratio was 1.03.
CGTAGGACC gave a switch fluorescence ratio of 1.02.
For CATGAGTGCT, the switch fluorescence ratio was 1.01.
For ATCTCAAAAT, the switch fluorescence ratio was 1.08.
For GTCGTATTC, the switch fluorescence ratio was 0.972.
In the case of ATGAAAGGTG, the switch fluorescence ratio is reported as 1.25.
Sequence TCTGTCTTAT has a switch fluorescence ratio of 0.988.
CAACAATGGG was tested, and the switch fluorescence ratio was 0.976.
TCGGAGTATG gave a switch fluorescence ratio of 1.07.
AGCGCGTCA gave a switch fluorescence ratio of 1.03.
With TTTGCTCGC the switch fluorescence ratio was 1.03.
Work on AGAAATCAT yielded a switch fluorescence ratio of 0.954.
Work on AGGTTGCATA yielded a switch fluorescence ratio of 0.987.
With AGCGATTACT the switch fluorescence ratio was 1.69.
For TGAGGCCTGG, the switch fluorescence ratio was 1.03.
TTCGGCTAGT showed a switch fluorescence ratio of 0.971.
ACAGTTTGTT gave a switch fluorescence ratio of 1.01.
GAGCGGCAG showed a switch fluorescence ratio of 0.99.
In the case of TATCGGGCAC, the switch fluorescence ratio is reported as 0.973.
CGCTTCC showed a switch fluorescence ratio of 2.15.
Sequence CTGTGGTATA has a switch fluorescence ratio of 1.
Sequence ATCACAAGGT has a switch fluorescence ratio of 0.945.
Work on AAAGAGAAAG yielded a switch fluorescence ratio of 0.959.
TGCAACTTAC gave a switch fluorescence ratio of 1.75.
Sequence GGTCGTCGAG has a switch fluorescence ratio of 0.929.
For GCGAAAAAAT, the switch fluorescence ratio was 0.984.
Sequence GAGTACACGA has a switch fluorescence ratio of 1.05.
Work on TATTAATAGG yielded a switch fluorescence ratio of 1.03.
In the case of CTTGTGCGCA, the switch fluorescence ratio is reported as 0.989.
GTCGTCTACA showed a switch fluorescence ratio of 0.98.
ATAGAACCAT was tested, and the switch fluorescence ratio was 1.03.
Work on AGATTTTTCT yielded a switch fluorescence ratio of 0.926.
With ATTTATGGCT the switch fluorescence ratio was 1.01.
For GAGATCGGAC, the switch fluorescence ratio was 0.992.
GTGAAGTTTA was tested, and the switch fluorescence ratio was 1.02.
TCCACTTCCG was tested, and the switch fluorescence ratio was 1.09.
ATTCACTTCC gave a switch fluorescence ratio of 1.06.
With AAAAAGCGTA the switch fluorescence ratio was 0.987.
Sequence GCCAAAGTCG has a switch fluorescence ratio of 1.03.
In the case of CTTAGTTGCA, the switch fluorescence ratio is reported as 0.985.
GGGGCAAAA gave a switch fluorescence ratio of 1.
For AATTGCTACT, the switch fluorescence ratio was 0.972.
Sequence GGATCCGAGG has a switch fluorescence ratio of 1.05.
Work on CTCGTAGTTA yielded a switch fluorescence ratio of 1.04.
In the case of ATGTGGAAG, the switch fluorescence ratio is reported as 0.958.
For GCCCGTTATG, the switch fluorescence ratio was 1.
TCCAGCAGTA gave a switch fluorescence ratio of 1.25.
AAATATGCGA gave a switch fluorescence ratio of 1.04.
CACATTATCT showed a switch fluorescence ratio of 1.04.
CTGTCCACAA was tested, and the switch fluorescence ratio was 1.98.
ACTGCAGACG showed a switch fluorescence ratio of 1.07.
ATTTGGTTTG was tested, and the switch fluorescence ratio was 1.02.
